Reference: the supplement of paper PMC3334620
The full ranking holds about 33,000 sequences; the median of “E-score (-0.5 to 0.5)” is about -0.036, and the highest 2% start at about 0.37. Some of the results follow.

target: T1, Yer064c (UniProt P40041); test: PBM E-score (8-mer binding enrichment) (E-score (-0.5 to 0.5)); higher = stronger / more preferred TF binding; most listed sequences are background and not binding sites; settings: protein concentration: 200 nM; construct: GST-full length
T1 sequence: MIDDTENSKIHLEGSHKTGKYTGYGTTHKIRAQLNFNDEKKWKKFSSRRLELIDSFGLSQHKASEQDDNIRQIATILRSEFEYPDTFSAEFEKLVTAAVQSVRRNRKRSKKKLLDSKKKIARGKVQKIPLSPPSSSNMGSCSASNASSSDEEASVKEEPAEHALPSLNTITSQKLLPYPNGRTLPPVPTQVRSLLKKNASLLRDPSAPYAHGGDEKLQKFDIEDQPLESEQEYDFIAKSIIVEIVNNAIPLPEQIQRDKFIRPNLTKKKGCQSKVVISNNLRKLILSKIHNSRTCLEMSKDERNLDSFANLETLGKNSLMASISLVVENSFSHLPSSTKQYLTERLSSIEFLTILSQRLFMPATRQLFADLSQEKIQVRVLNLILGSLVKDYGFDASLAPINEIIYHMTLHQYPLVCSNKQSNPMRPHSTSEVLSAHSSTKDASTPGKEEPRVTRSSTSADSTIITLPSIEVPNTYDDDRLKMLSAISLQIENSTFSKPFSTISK
Outline: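 Masliner-normalised scans of fluorescent anti-GST signal were the basis for scoring. That signal came from GST-tagged yeast transcription factors applied at about 100-200 nM to double-stranded universal all-10-mer Agilent arrays on fresh or once-stripped slides. Each ungapped eight-base word, pooled with its reverse complement, received an E-score from the Universal PBM Analysis Suite.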

In order of rising “PBM E-score” value:
1. CCGACAGC  -0.394
2. GCGTTCCC  -0.339
3. CAAGGTGC  -0.315
4. AGGCTCTC  -0.314
5. GGAGCACC  -0.293
6. CAATGCCG  -0.288
7. CGTGGCCA  -0.285
8. AAGCATCG  -0.272
9. CCCCTGGC  -0.266
10. ACCGATCT  -0.255
11. AATGCGCC  -0.252
12. ACGTTTCA  -0.25
13. CCGTCAAG  -0.243
14. AAAGGCCC  -0.237
15. GCCCCCGA  -0.231
16. GACCGCCC  -0.228
17. GGACGGCA  -0.224
18. AACGGAGG  -0.218
19. AGGCACGC  -0.215
20. AATAGGCG  -0.213
21. GGAAGGCA  -0.213
22. CGGGTTGC  -0.212
23. GAGAGGGC  -0.203
24. AGCATTGC  -0.202
25. CAGTTTCA  -0.196
26. GAACCCTC  -0.194
27. CCTTAACA  -0.188
28. CTTCCGCC  -0.183
29. ATCTCTCC  -0.182
30. AATTTGCC  -0.18
31. AACCTGGC  -0.18
32. CCACTATC  -0.176
33. CGGATCGC  -0.172
34. ATGAGAGC  -0.17
35. AGGGGATA  -0.169
36. ACCGTTTC  -0.159
37. CGTAAACG  -0.157
38. TACGTCAA  -0.153
39. CGGCAAAG  -0.153
40. CTGACGCA  -0.152
41. ACCGAATG  -0.149
42. ATAGTAGC  -0.149
43. CCGTAGGA  -0.147
44. GCCAACGC  -0.143
45. GTAACATA  -0.141
46. GTGTGACA  -0.139
47. CGCCTACC  -0.132
48. AGACGTGC  -0.129
49. AAAATCCA  -0.125
50. AAGCTGAA  -0.118
51. GGACGTTA  -0.11
52. ATACCAAT  -0.109
53. CTTGTAGA  -0.105
54. AAACAGGA  -0.0996
55. CCTGAGCG  -0.0995
56. CCCTTTAG  -0.0961
57. AACTTTCT  -0.0939
58. ATCTTGGG  -0.0917
59. TAATAGCA  -0.09
60. AGGTTTCG  -0.0887
61. GAAGGCTC  -0.0881
62. GGTATCCA  -0.0854
63. AGCATAAG  -0.0854
64. CTCGCCAC  -0.0736
65. AGGTGTAT  -0.0724
66. AGCCTGTA  -0.0624
67. CGACCGGC  -0.0607
68. CTAAGAAC  -0.0563
69. CCGTGACC  -0.0561
70. CTTCGACC  -0.0555
71. GTATGACA  -0.0553
72. AGCATTCA  -0.0549
73. ATACAAAT  -0.0539
74. AGATCTGC  -0.053
75. CGTCTATC  -0.0526
76. ATCTTCCG  -0.0471
77. CCATTTTA  -0.0471
78. CCCAAGGA  -0.0414
79. ATAAGAAC  -0.0388
80. AAACGCCG  -0.037
81. AACTCTGT  -0.0335
82. CGATGAAG  -0.0335
83. CTACTCCC  -0.025
84. AACGGTGT  -0.021
85. CAGTGAAG  -0.0176
86. CAGCGCTG  -0.0171
87. AAATACGG  -0.0165
88. TCTTCGAA  -0.0141
89. CAAATATG  -0.0122
90. GATGCATC  -0.0114
91. CCACCGTA  -0.00912
92. CCGCAATC  -0.00524
93. AACTAGCA  -0.00106
94. CTGTGCAA  0.00158
95. AGACGAAT  0.00164
96. ATTTCTCC  0.00421
97. ACGGTTAC  0.0048
98. ACTGTTGG  0.00718
99. ATTCCTTA  0.0121
100. GAACTTAA  0.0134
101. AACTAATG  0.0134
102. AAATAAAC  0.0137
103. CGAACTAG  0.0219
104. CTTGGGAC  0.0238
105. ATGATATA  0.0245
106. GCGAACTA  0.0247
107. ACATCAGA  0.0253
108. GTCCCAAC  0.0262
109. ACCTCTGA  0.027
110. ATCCATAA  0.0276
111. ACCATCAC  0.0299
112. AAACATCT  0.03
113. GTAGAGTA  0.0307
114. AATCTGTA  0.0309
115. TAATGCAA  0.0341
116. GCAGTGAA  0.035
117. AGTATGGC  0.0363
118. ACGAGTAG  0.039
119. TATTCTCA  0.039
120. ATAGCACA  0.0456
121. AACCCAGA  0.0461
122. ATTCACCG  0.0472
123. ATTTCTTA  0.0476
124. GGGTACAA  0.0531
125. ATACGAAG  0.0534
126. ACTTGCCG  0.0548
127. ACGGTAAT  0.0587
128. ACCATTAA  0.0646
129. GCAACACA  0.0656
130. CAACGGGG  0.0671
131. GTATCGAC  0.07
132. CACACATA  0.0706
133. GTCCTACA  0.0711
134. GATCAATC  0.0711
135. GTACCCAC  0.0716
136. AACTTATA  0.0736
137. ACATCCTG  0.0753
138. GCGTAAGA  0.0755
139. GGTCACAA  0.0763
140. CAGCACGG  0.0779
141. CTACTAGA  0.0781
142. AACAATAA  0.0809
143. GTTGGTCA  0.0845
144. CTGACAAC  0.0867
145. GTTTGCTA  0.0898
146. AAGACGAA  0.0942
147. AAGTCTGT  0.0944
148. AGACTGCT  0.0961
149. CATTTAAC  0.125
150. AGTCTAAC  0.127
151. ATTTAGTG  0.127
152. ATCGAGTG  0.139
153. ATCACATC  0.143
154. ACTTGATC  0.149
155. ATCAGCGG  0.157
156. AACCATGT  0.159
157. TTAACGAA  0.183
158. CACATGAA  0.184
159. CTACCGTA  0.185
160. AGTAATCG  0.186
161. CTAACCAG  0.188
162. ATCACCAT  0.191
163. CGAGATGA  0.233
164. CAGTACTC  0.24
165. GATTAGCC  0.254
166. ACTAATTC  0.265
167. ATCATTGA  0.323
168. CCCTAGTC  0.326
169. AGAGTCTC  0.332
170. AGTGATTC  0.405
171. GACTACCC  0.42
172. GACTAATC  0.439
